# Assay results taken from patent publication US20240101717A1 (BIONECURE THERAPEUTICS, published 2024).
# What was measured:
# [1] = molecular target: T1, human Trop-2 (human, UniProt P09758 27-323); assay: cell-based or functional assay
# T1 sequence (looked up): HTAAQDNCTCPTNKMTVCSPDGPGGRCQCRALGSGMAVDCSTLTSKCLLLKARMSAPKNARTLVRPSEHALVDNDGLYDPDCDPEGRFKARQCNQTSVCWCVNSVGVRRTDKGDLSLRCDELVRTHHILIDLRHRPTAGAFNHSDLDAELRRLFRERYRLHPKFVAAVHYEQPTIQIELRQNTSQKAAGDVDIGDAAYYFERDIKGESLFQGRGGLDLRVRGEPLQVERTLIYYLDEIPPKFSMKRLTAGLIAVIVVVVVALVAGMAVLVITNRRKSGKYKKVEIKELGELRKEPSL
# [2] = molecular target: T1, human Trop-2; assay: cell-based or functional assay; remark: listed apart in the source
Binder,"IC50 (nM), in vitro cytotoxicity assay (CCK-8, 72 h) on MDA-MB-468 cells [1] [nM]","IC50 (nM), in vitro cytotoxicity assay on MDA-MB-468 cells [2] [nM]"
"HT2-BI-P203 ADC (bispecific antibody, human IgG1, kappa, BI-P203 payload conjugated via the maleimide group to reduced cysteines; positions not given) heavy: [about 100 residues not shown]GGGGSGGGGSGGGGS[about 120 residues not shown]GGGGSGGGGSGGGSQVQLQESGPGLVKPSETLSLTCTVSGFSLTSYGVNWIRQPPGKGLEWIGVMWAGGSTNYNSALMSRLTISKDTSKNQFSLKLSSVTAADTAVYYCARDENWDGAWFAYWGQGTLVTVSSASTKGPSVFPLAPSSKSTSGGTAALGCLVKDYFPEPVTVSWNSGALTSGVHTFPAVLQSSGLYSLSSVVTVPSSSLGTQTYICNVNHKPSNTKVDKRV[human IgG1 Fc not shown] light: DIVMTQSPDSLAVSLGERATINCKSSQSLLNSGTRKNYLAWYQQKPGQPPKLLISWASSRESGVPDRFSGSGSGTDFTLTISSLQAEDVAVYYCKQSYNLFTFGGGTKVEIKRTVAAPSVFIFPPSDEQLKSGTASVVCLLNNFYPREAKVQWKVDNALQSGNSQESVTEQDSKDSTYSLSSTLTLSKADYEKHKVYACEVTHQGLSSPVTKSFNRGEC",14.1,–
"HT2(HT002)-MMAE ADC (bispecific antibody, human IgG1, kappa, MMAE-linker conjugated to reduced cysteines; positions not given) heavy: [about 100 residues not shown]GGGGSGGGGSGGGGS[about 120 residues not shown]GGGGSGGGGSGGGSQVQLQESGPGLVKPSETLSLTCTVSGFSLTSYGVNWIRQPPGKGLEWIGVMWAGGSTNYNSALMSRLTISKDTSKNQFSLKLSSVTAADTAVYYCARDENWDGAWFAYWGQGTLVTVSSASTKGPSVFPLAPSSKSTSGGTAALGCLVKDYFPEPVTVSWNSGALTSGVHTFPAVLQSSGLYSLSSVVTVPSSSLGTQTYICNVNHKPSNTKVDKRV[human IgG1 Fc not shown] light: DIVMTQSPDSLAVSLGERATINCKSSQSLLNSGTRKNYLAWYQQKPGQPPKLLISWASSRESGVPDRFSGSGSGTDFTLTISSLQAEDVAVYYCKQSYNLFTFGGGTKVEIKRTVAAPSVFIFPPSDEQLKSGTASVVCLLNNFYPREAKVQWKVDNALQSGNSQESVTEQDSKDSTYSLSSTLTLSKADYEKHKVYACEVTHQGLSSPVTKSFNRGEC",–,6.12
